Laboratory results reported in PubChem BioAssay AID624296 (National Center for Advancing Translational Sciences (NCATS), 2012).
Among all 350,000 compounds or so, about 9,900 (2.8%) were called active. The shares of active, inactive and inconclusive entries below differ from those in the screen. Calls come from the whole dose curve; as a rule, active = well fitted activation curve with a large enough effect; inconclusive = small, poorly fitted or top-dose-only effect; inactive = no such curve, though single readings can be large or run the other way. No potency is given beside an inconclusive call; the fits are too rough.

Test: A quantitative high throughput screen for small molecules that induce DNA re-replication in MCF 10a normal breast cells. Note: nearly all actives have a fitted effect of over 50% in size.
Settings: MCF 10A DNA re-replication, Hoechst nuclear intensity, 48 h; series mostly up to 46.1 µM
Potency is the fitted concentration of half-maximal effect; tags give direction and shape of the fitted curve.

Row | SMILES | Potency
1 | CC12CCC(=O)N1C(C(=O)N1CCN(c3cccc(Cl)c3)CC1)CS2 (centres undefined) | inactive
2 | CS(=O)(=O)N1CCN(C2C3CC4CC(C3)CC2C4)CC1 (centres undefined) | inconclusive [activator, partial curve, poor fit]
3 | Cc1cc(NC(=O)CN(C)CC(=O)Nc2ccc(Cl)cc2)no1 | inactive
4 | CC(=O)Oc1cc(C)c(OC(C)=O)c2ccccc12 | inconclusive [activator, single point]
5 | O=C(c1cnn2c(C(F)(F)F)cc(-c3cccs3)nc12)N1CCOCC1 | inconclusive [activator, partial curve, poor fit]
6 | CC1CCN(c2ccccc2NC(=O)c2cc([N+](=O)[O-])ccc2N2CCOCC2)CC1 | inconclusive [activator, partial curve, poor fit]
7 | Nc1ccc2cc3[nH]c4cc(N)ccc4c3nc2c1 | active: 18.4 µM
8 | Cc1cc(C)c(Cn2c3ccccc3c3cnn(CC(=O)NCCN4CCOCC4)c(=O)c32)c(C)c1 | inconclusive [activator, single point]
9 | O=C(Nc1ccc2ccccc2c1)c1ccccc1O | inconclusive [activator, single point]
10 | CCOC(=O)N=Nc1c2ccccc2c2nc3no[nH]c3nc12 | inconclusive [activator, full curve, poor fit]
11 | CC1=CCC2COC(c3ccc[n+](Cc4ccccc4)c3)C1C2 (centres undefined) | inactive
12 | CCN1CCCC1Cn1cnc2c([nH]c3ccc(Cl)cc32)c1=O (centres undefined) | inconclusive [activator, single point]
13 | COC(=O)C1=C(C)N=C2SC(C#N)=C(N)N2C1c1ccc(OCc2ccccc2)cc1 (centres undefined) | inconclusive [activator, single point]
14 | CCN(Cc1ccccc1)C(=O)c1cc(-c2ccc(OC)c(OC)c2)nc2ccccc12 | inconclusive [activator, single point]
15 | CCCn1c(N)c(N(CCOC)C(=O)/C=C/c2ccc(C(=O)OC)cc2)c(=O)[nH]c1=O | inconclusive [activator, single point]
16 | N#Cc1nc(-c2ccc(OCc3ccc(Cl)cc3)cc2)oc1N1CCC(C(N)=O)CC1 | inconclusive [activator, single point]
17 | CCCOc1ccc(OCC(=O)c2[nH]c(C)c(C(C)=O)c2C)cc1 | inactive
18 | CC(C)C(=O)N1CCN(c2ccc(NC(=O)COc3ccccc3[N+](=O)[O-])cc2)CC1 | active: 20.6 µM
19 | CC(=NNC(=O)c1ccncc1)c1ccc(O)cc1O | inconclusive [activator, single point]
20 | Cc1ccnc(N/N=C/c2ccco2)n1 | active: 2.91 µM
21 | Cc1nn(C)cc1CNC(=O)C1CCC(=O)N(CC2CCCCC2)C1 (centres undefined) | inconclusive [activator, single point]
22 | Cc1nn(-c2ccccc2)c(Cl)c1/C=N/NC(=O)c1ccc(CNc2ccccc2)o1 | inconclusive [activator, full curve, poor fit]

Row | SMILES | Potency
23 | CCOc1cc(C(=O)NN=C2CCCC2)cc(OCC)c1OCC | active: 16.4 µM
24 | O=C(Cn1nc(Cl)nc1Cl)c1ccc2c(c1)OCCO2 | inconclusive [activator, single point]
25 | Cc1ccc(OCC(O)CN2CCN(c3ccccc3)CC2)cc1 (centres undefined) | inactive
26 | Cc1c(C(=O)N2CCOCC2)c(S(=O)(=O)Nc2ccc(OC(F)(F)F)cc2)c(C)n1C | inactive
27 | CCCCC(=O)Nc1ccc(C(=O)N2CCCC(C(=O)OCC)C2)cc1 (centres undefined) | inactive
28 | Cc1ccc(NS(=O)(=O)c2cccc(C(=O)NCCCn3ccnc3)c2)cc1 | inconclusive [activator, partial curve, poor fit]
29 | CC(NC(=O)COc1ccccc1)C1COc2ccccc2O1 (centres undefined) | inconclusive [activator, partial curve, poor fit]
30 | OC(CNCCc1ccc(C(F)(F)F)cc1)COc1ccc2ccccc2c1 (centres undefined) | active: 5.8 µM
31 | CC(=O)Nc1ccc(Nc2nc(C)nc3c2nnn3Cc2ccccc2Cl)cc1 | inconclusive [activator, full curve, poor fit]
32 | Cc1ccc(Nc2nc(C)cc(C)c2C(N)=O)c(C)c1 | inactive
33 | COc1ccc(-n2c(SCC#N)nnc2-c2ccc(NS(=O)(=O)c3ccc(C)cc3)cc2)cc1 | inconclusive [activator, partial curve, poor fit]
34 | Cc1cccc(N2CCN(C(=O)CN3C(=O)NC4(CCCCCC4)C3=O)CC2)c1C | inconclusive [activator, single point]
35 | Cc1nc(C)c(-c2csc(NCCc3ccccc3)n2)s1 | inconclusive [activator, single point]
36 | COc1ccc(C2(c3ccc(OC)cc3)NC(=O)N(CC(=O)Nc3ccccc3)C2=O)cc1 | inconclusive [activator, full curve, poor fit]
37 | COc1ccc(C(=O)COC(=O)C(CC(C)C)N2C(=O)c3ccccc3C2=O)cc1 (centres undefined) | inactive
38 | Cc1cc(Br)c(NC(=O)CN2CCCC2)c(Br)c1 | inconclusive [activator, full curve, poor fit]
39 | CCN(CC(=O)NCc1cccs1)C(=O)c1ccc(C)o1 | inactive
40 | Cc1c(N2C(=O)/C(=C/c3ccccc3)SC2=S)c(=O)n(-c2ccccc2)n1C | inactive
41 | CC(C)c1ccc(OCC(O)CN2CCN(c3ccccn3)CC2)cc1 (centres undefined) | active: 16.4 µM
42 | CCn1c(=N)n(CC(=O)C(C)(C)C)c2ccccc21 | inconclusive [activator, single point]
43 | C#CCN1C(=O)C(O)(CC(=O)c2ccc(OC)c(OC)c2)c2ccccc21 (centres undefined) | inconclusive [activator, single point]
44 | O=c1[nH]c2ccccc2cc1CN(CC1CCCO1)S(=O)(=O)c1ccc(Cl)cc1 (centres undefined) | inconclusive [activator, single point]
